Laboratory results: paper PMC9911399, “Two distinct binding modes provide the RNA-binding protein RbFox with extraordinary sequence specificity”
Substitutions are numbered along the chain they refer to; changes in the protein carry UniProt numbers. This is one part of the list.

T1: RBFOX1 RRM (Homo sapiens, UniProt Q9NWB1 109-208)
T1 sequence: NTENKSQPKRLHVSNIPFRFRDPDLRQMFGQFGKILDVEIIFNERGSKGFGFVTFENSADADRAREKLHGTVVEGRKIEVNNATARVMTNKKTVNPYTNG

B1: ACCACCG (DNA:RNA)
RNA: GGGAGACCGGAAUUCAGAUUGUCCACCACCGUUAAAUCCCGUCGUAGCCACCA
DNA 1: CAATCTGAATTCCGGTCTCCC
DNA 2: TGGTGGCTACGACGGGATT
B2: UUUGGGU (DNA:RNA)
RNA: GGGAGACCGGAAUUCAGAUUGUCCUUUGGGUUUAAAUCCCGUCGUAGCCACCA
DNA 1: CAATCTGAATTCCGGTCTCCC
DNA 2: TGGTGGCTACGACGGGATT
B3: UAAACUA (DNA:RNA)
RNA: B1 RNA with A25U, C26A, C27A, C30U, G31A
DNA 1: CAATCTGAATTCCGGTCTCCC
DNA 2: TGGTGGCTACGACGGGATT
B4: AUUAAAG (DNA:RNA)
RNA: B1 RNA with C26U, C27U, C29A, C30A
DNA 1: CAATCTGAATTCCGGTCTCCC
DNA 2: TGGTGGCTACGACGGGATT
B5: CCAUGGG (DNA:RNA)
RNA: B1 RNA with A25C, C27A, A28U, C29G, C30G
DNA 1: CAATCTGAATTCCGGTCTCCC
DNA 2: TGGTGGCTACGACGGGATT
B6: GGACGCU (DNA:RNA)
RNA: B2 RNA with U25G, U26G, U27A, G28C, G30C
DNA 1: CAATCTGAATTCCGGTCTCCC
DNA 2: TGGTGGCTACGACGGGATT
B7: AACGAGU (DNA:RNA)
RNA: B2 RNA with U25A, U26A, U27C, G29A
DNA 1: CAATCTGAATTCCGGTCTCCC
DNA 2: TGGTGGCTACGACGGGATT
B8: AUACCUA (DNA:RNA)
RNA: B1 RNA with C26U, C27A, A28C, C30U, G31A
DNA 1: CAATCTGAATTCCGGTCTCCC
DNA 2: TGGTGGCTACGACGGGATT
B9: GAAUUUU (DNA:RNA)
RNA: B2 RNA with U25G, U26A, U27A, G28U, G29U, G30U
DNA 1: CAATCTGAATTCCGGTCTCCC
DNA 2: TGGTGGCTACGACGGGATT
B10: AAAUGGU (DNA:RNA)
RNA: B2 RNA with U25A, U26A, U27A, G28U
DNA 1: CAATCTGAATTCCGGTCTCCC
DNA 2: TGGTGGCTACGACGGGATT
B11: ACGUAGU (DNA:RNA)
RNA: B1 RNA with C27G, A28U, C29A, C30G, G31U
DNA 1: CAATCTGAATTCCGGTCTCCC
DNA 2: TGGTGGCTACGACGGGATT
B12: GUCUAGA (DNA:RNA)
RNA: B2 RNA with U25G, U27C, G28U, G29A, U31A
DNA 1: CAATCTGAATTCCGGTCTCCC
DNA 2: TGGTGGCTACGACGGGATT
B13: GCAUACG (DNA:RNA)
RNA: B1 RNA with A25G, C27A, A28U, C29A
DNA 1: CAATCTGAATTCCGGTCTCCC
DNA 2: TGGTGGCTACGACGGGATT
B14: CCUUUGA (DNA:RNA)
RNA: B2 RNA with U25C, U26C, G28U, G29U, U31A
DNA 1: CAATCTGAATTCCGGTCTCCC
DNA 2: TGGTGGCTACGACGGGATT
B15: ACAUCUU (DNA:RNA)
RNA: B1 RNA with C27A, A28U, C30U, G31U
DNA 1: CAATCTGAATTCCGGTCTCCC
DNA 2: TGGTGGCTACGACGGGATT
B16: AACAUAG (DNA:RNA)
RNA: B1 RNA with C26A, C29U, C30A
DNA 1: CAATCTGAATTCCGGTCTCCC
DNA 2: TGGTGGCTACGACGGGATT
B17: CUAGCCC (DNA:RNA)
RNA: B1 RNA with A25C, C26U, C27A, A28G, G31C
DNA 1: CAATCTGAATTCCGGTCTCCC
DNA 2: TGGTGGCTACGACGGGATT
B18: GGGUGCU (DNA:RNA)
RNA: B2 RNA with U25G, U26G, U27G, G28U, G30C
DNA 1: CAATCTGAATTCCGGTCTCCC
DNA 2: TGGTGGCTACGACGGGATT
B19: GCUUAAC (DNA:RNA)
RNA: B1 RNA with A25G, C27U, A28U, C29A, C30A, G31C
DNA 1: CAATCTGAATTCCGGTCTCCC
DNA 2: TGGTGGCTACGACGGGATT
B20: UCGGCAA (DNA:RNA)
RNA: B1 RNA with A25U, C27G, A28G, C30A, G31A
DNA 1: CAATCTGAATTCCGGTCTCCC
DNA 2: TGGTGGCTACGACGGGATT

biological target: T1, RBFOX1 RRM; test: EMSA; HiTS-Eq, 1 nM pool, 10 min; buffer printed only for the single-RNA assays: 10 mM Tris pH 7.5, 150 mM NaCl, 3.4 mM EDTA, 0.001% NP-40, 30 C; conditions: tags: His6 N-terminal (pET28a); label: 5' 32P
Outline: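 These values rest on relative association constants, computed from read-count changes of each RNA species versus the control reaction and normalised to the cognate motif. Reads came from free RNA recovered by 8% native PAGE after purified RbFox RRM (wild type or mutant) at increasing concentrations was equilibrated for 10 min in 50 µL with 1 nM of a 5′-radiolabelled pool with 7 randomized nucleotides and DNA-annealed flanks.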

Compared with B1, B2 is higher in binding signal: 0.000765 KA relative to UGCAUGU for the first, 0.00647 KA relative to UGCAUGU for the second.

First: B3
Second: B4
The binding signal of the first is higher: 0.00429 KA relative to UGCAUGU for the first, 0.0014 KA relative to UGCAUGU for the second.

First: B5
Second: B6
The binding signal of the first is lower: 0.00466 KA relative to UGCAUGU for the first, 0.0229 KA relative to UGCAUGU for the second.

First: B7
Second: B8
The binding signal of the first is higher: 0.00616 KA relative to UGCAUGU for the first, 0.002 KA relative to UGCAUGU for the second.

First: B9
Second: B10
The binding signal of the first is higher: 0.00914 KA relative to UGCAUGU for the first, 0.00783 KA relative to UGCAUGU for the second.

First: B11
Second: B12
The binding signal of the first is lower: 0.006 KA relative to UGCAUGU for the first, 0.016 KA relative to UGCAUGU for the second.

First: B13
Second: B14
The binding signal of the first is lower: 0.00943 KA relative to UGCAUGU for the first, 0.0137 KA relative to UGCAUGU for the second.

Compared with B15, B16 is higher in binding signal: 0.000772 KA relative to UGCAUGU for the first, 0.00269 KA relative to UGCAUGU for the second.

First: B17
Second: B18
The binding signal of the first is lower: 0.00639 KA relative to UGCAUGU for the first, 0.0276 KA relative to UGCAUGU for the second.

Compared with B19, B20 is higher in binding signal: 0.00706 KA relative to UGCAUGU for the first, 0.0131 KA relative to UGCAUGU for the second.
